The % Inhibition is the relative decrease from the control value, in per cent.

The whole screen tested about 150,000 compounds, of which about 540 (0.36%) showed an effect of 50% or more. This is one part of the list.

The experiment concerns Plasmodium falciparum. The experiment can be described thus: Primary screen in NF54 nanoGlo assay, in single point, at 2uM, 72h; a lower Z score goes with more inhibition. The experiment is classed as functional, Erythrocyte. The following applies: timepoint 72 hour.
For the compound `O=C1CN(c2ccc(NC(=O)NCc3ccco3)cn2)CCN1`, the “% Inhibition” value is recorded as 8% and the Z score is -1.03.

For the compound `O=C(COc1ccccc1Br)N(C1CCCC1)[C@H]1CCS(=O)(=O)C1`, the “% Inhibition” value was -8% and the Z score came to 1.57.

Regarding `Cc1nnc(CN(C)[C@@H](C)C(=O)Nc2ccccn2)o1`, the “% Inhibition” value is given as -6% and the Z score stood at 0.81.

For the compound `CS(=O)(=O)n1nc(-c2cccs2)nc1NCc1ccc(Cl)cc1`, the “% Inhibition” value was -48% and the Z score is given as 5.62.

`O=C(Cc1n[nH]c(=O)[nH]1)N1CCO[C@@H](CC(c2ccccc2)c2ccccc2)C1`: the “% Inhibition” value is given as 1% and the Z score is on record as -0.13.

As for `O=S(=O)(NC1CCCC1)[C@H]1CCCN(S(=O)(=O)c2cccnc2)C1`, the “% Inhibition” value is -20% and the Z score turned out to be 2.01.

As to `C[C@@H](C(=O)NCCc1cnccn1)n1cc(Cl)cn1`, the “% Inhibition” value is reported as 4% and the Z score was -0.57.

For the compound `CCn1cc(CNC(=O)NC2CCCCC2)c(C)n1`, the “% Inhibition” value was -5% and the Z score stood at 0.97.

With `O=C(NC1CCN(C(=O)N2CCCCC2)CC1)c1ccnnc1`, the “% Inhibition” value is given as -6% and the Z score was 0.77.

On to `CCCC1CC(C)(c2csc(NCCNc3nc(C4(C)CC(CCC)C(=O)O4)cs3)n2)OC1=O` (stereo unspecified), for which the “% Inhibition” value worked out at 4% and the Z score is given as -0.58.

With `Cn1nc(C(=O)Nc2nc(-c3c(F)cccc3F)n[nH]2)ccc1=O`, the “% Inhibition” value amounted to 1% and the Z score is -0.17.

Take `Cc1cc(C(=O)N(C)c2ccnn2C)c(F)cc1F`: the “% Inhibition” value was 16% and the Z score is listed as -1.88.

Take `CC1=C[C@@H](CNC(=O)CC2(CC(=O)O)CCCC2)[C@H](C(C)C)C[C@H]1Cc1nc2ccc(F)cc2[nH]1`: the “% Inhibition” value was 0% and the Z score was 0.02.

On to `COc1ncc(CN(CCc2ccc(Cl)cc2)Cc2cccnc2)cn1`, for which the “% Inhibition” value was determined as 6% and the Z score is on record as -1.14.

For `O=C(C1C2C(=O)N(CCc3ccncc3)C[C@@]23C=C[C@@H]1O3)N1CCC1` (stereo partly specified), the “% Inhibition” value is recorded as 0% and the Z score is given as -0.02.

For `C[C@@H](CCC1CC1)Nc1ncnc2ccccc12`, the “% Inhibition” value amounted to 6% and the Z score is on record as -1.21.

Consider `CC(C)NC(=O)COC(=O)c1cccc(F)c1`, for which the “% Inhibition” value is reported as -3% and the Z score amounted to 0.39.

Consider `Cc1nc(CC(=O)N2CCN(S(C)(=O)=O)CC2)c(C)s1`, for which the “% Inhibition” value is reported as -11% and the Z score was determined as 2.

`Cc1nc(CC[C@H]2CCN(C(=O)c3ccncn3)C2)no1`: the “% Inhibition” value is reported as 2% and the Z score is reported as -0.37.

With `CC(C)CN1CCN(C(=O)c2cnc(-c3ccc4c(c3)CCO4)s2)CC1=O`, the “% Inhibition” value was -19% and the Z score is listed as 3.65.

Consider `CN(Cc1ccccc1)Cc1cccc(C(=O)N[C@H]2CCc3ncnn3C2)c1`, for which the “% Inhibition” value is on record as -11% and the Z score was determined as 1.09.

Consider `Cc1cccc(Cl)c1NC(=O)N1CCC2(C1)OCCO2`, for which the “% Inhibition” value was -8% and the Z score stood at 0.94.

Consider `CN(CCn1ccnc1)C(=O)[C@@H]1CCc2ccccc21`, for which the “% Inhibition” value is recorded as 1% and the Z score was -0.17.
